Source: the supplement of paper PMC3334620
The full ranking holds about 33,000 sequences; the median of “E-score (-0.5 to 0.5)” is about -0.017, and the highest 2% start at about 0.3. The list shows a part of the results.

Target: T1, Sut1 (UniProt P53032)
T1 sequence: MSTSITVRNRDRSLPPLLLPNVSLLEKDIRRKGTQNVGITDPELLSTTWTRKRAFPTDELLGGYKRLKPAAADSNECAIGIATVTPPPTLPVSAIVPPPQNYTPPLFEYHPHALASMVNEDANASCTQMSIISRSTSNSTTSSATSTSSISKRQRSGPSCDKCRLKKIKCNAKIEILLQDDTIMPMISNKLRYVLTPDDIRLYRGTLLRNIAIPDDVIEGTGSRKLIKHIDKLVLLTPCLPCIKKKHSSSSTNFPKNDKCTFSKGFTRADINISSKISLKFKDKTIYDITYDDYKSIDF
Test: PBM E-score (8-mer binding enrichment) (E-score (-0.5 to 0.5)); higher = stronger / more preferred TF binding; most listed sequences are background and not binding sites
Conditions: protein concentration: 200 nM; construct: GST-full length
Summary of the method: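 Universal all-10-mer Agilent arrays, fresh or stripped once, were converted to double-stranded form by primer extension. GST-tagged yeast transcription factors from PURExpress in vitro transcription/translation, full-length or DNA-binding domain only, were applied at about 100-200 nM and detected with fluorescent anti-GST. After masliner normalisation, the Universal PBM Analysis Suite scored each ungapped eight-base word together with its reverse complement by E-score.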

Sequence	PBM E-score
ATAATAAG	0.218
TAGTAAGA	0.0323
GTAAAATA	0.145
AACCGGCT	-0.121
ACGCTGAT	-0.0732
ATAGCTTG	-0.0807
CCACCTTA	-0.132
CAGTGTCC	0.0229
GTCAGGAA	-0.188
ACGGCGTC	-0.0798
CGTATAAC	0.129
GCGTCCAC	-0.17
AATTGGTG	0.183
ATACTGCC	-0.0927
CATTTCCA	0.00696
GCTTAAAA	0.0188
AATGAGCG	0.0517
CGATATCC	0.0944
GGATCTAC	-0.0964
ATACAAGA	0.202
CGATGTAA	-0.0497
AACTGACC	-0.184
GGTATGGA	0.0755
AACAACCA	0.145
CTCCATCC	-0.19

Sequence	PBM E-score
CATCACGG	0.0245
ACGCGTAG	-0.157
GACTAGGC	-0.199
CTAAGCAC	-0.0439
AAGGTGCT	-0.128
CCCAATGA	-0.14
TCGAAAGA	0.045
CTCCCTTA	-0.0284
CCCATGTC	-0.271
CGGGCCAC	0.0891
CCATCCTA	-0.118
ATTAACCC	0.119
ACTAGTGA	-0.0575
TAGAATCA	-0.00809
GGTCGCCA	-0.167
GCTTGGAC	-0.197
AGTAGCGC	0.061
CTAAATTA	0.24
GCAGCCGC	-0.0904
AAAACTTG	0.143
GCCCAAGC	-0.148
CACGGGAC	0.0082
AATGCGAC	0.0893
GAGACTAA	0.227
GCGGGTCA	-0.0691

Sequence	PBM E-score
AGCCGTTA	0.0733
CACCCGCG	-0.0943
CGGGCAGC	0.0964
GCCGCGGA	0.106
CTAGTCAG	-0.186
GGCCCTAA	-0.0195
CGGATCCG	0.258
TATAGGGA	-0.0222
AGATGGTC	-0.12
TATTCCCA	0.139
CAGAGTCA	-0.379
AACTACGG	0.134
CGATCTTC	0.0612
CCCCGTTA	-0.0324
CAGCCCAG	-0.234
AGGAGGTC	-0.109
AACGCTCT	-0.241
CTTACAAG	0.0191
AAATTTGA	0.161
GTACTGAC	-0.0996
GCGATTCC	0.0593
ACATACCT	0.177
CCGAACCA	0.0339
TCGGAGCA	0.3
AAATGCCG	0.127

Sequence	PBM E-score
AATGATTC	0.192
CCCTCTAC	-0.299
ACCTGAGA	-0.0623
AGCCCGCA	-0.0732
ACCGCAGT	-0.0813
GAGCCCGA	-0.0297
ACCGACCC	-0.157
AACCACTG	-0.0403
AAAAGGAC	0.0899
AGCGTAGC	-0.0963
GAGATTGC	-0.0355
GCAGAGTA	-0.0113
CTCCGCCC	0.217
CCTTCGTC	-0.154
GAGTATTA	0.245
AATAGCGG	0.0301
CAAACGGC	-0.19
CCGGCATC	0.0416
AAGCTGAC	0.0494
CCTGTGAC	-0.303
ATTGAAGG	0.029
CAACACCG	0.0955
CTATAGTC	-0.077
AACCGTAT	-0.183
ATTCCTCG	-0.045

Sequence	PBM E-score
AAGAGTAA	0.0815
ACTTACAA	0.267
CGTAATCA	0.142
CCGCCCCA	-0.06
AGTGTCTA	0.0615
ACTCCCCA	-0.0539
GTGGCAAC	-0.0293
ATGGGTAA	0.106
CTTACTCC	0.365
CCCTATGC	-0.262
ACTTCGGA	0.397
AGAAAGCG	0.0146
CCTAAGGA	-0.0856
AGGCGACT	-0.145
CTGGTCAA	-0.0819
CTAGACCA	-0.0506
AAGCGGCC	-0.153
CGGCCTGA	-0.217
CCGTACCG	-0.00502
ATTTAGAA	0.198
ATATTATA	0.249
ATACACCG	0.0181
ACGGAAGA	0.147
CCGGTCTA	0.0109
AACCATTA	0.2

Sequence	PBM E-score
AGGAGCTC	-0.18
CAGGTCTA	-0.109
AGACCATC	-0.142
GAGGATGA	-0.212
CACTCCTC	-0.176
AGCTCCGG	0.466
CTACGACC	-0.00748
GACAAAGA	0.181
GGCACAAA	-0.112
CAGTGTAA	0.09
GGACCCAC	-0.0323
CACGAGCG	-0.268
CTGATACC	-0.0637
TCGCGTAA	0.173
CGGCGCTC	0.0683
GACTCATA	0.0779
AGAAATCG	0.0841
CTTCTCCC	-0.125
AGTCTCGA	-0.172
GTCCAGCA	-0.315
CGGTGCTC	0.0312
ATAATACG	0.182
CACTCACG	-0.0637
ACATACTG	0.0299
CAGGCCCG	-0.156

Sequence	PBM E-score
AACGGAAA	0.327
CTTTTGAA	0.152
CCTAATCG	0.0823
CTTGGAGA	-0.00672
CGCGAAAA	0.0171
AGTTAAGC	0.142
ACTAACAC	0.0342
AAGTCTCA	-0.113
AACGCATC	-0.159
CTAATGAA	0.135
AAAGATAG	0.139
GGCTTCAA	-0.181
CCGTAGTA	0.123
GCTGAACA	0.0731
ATACTGAT	0.222
CCTCGAAG	0.0696
AGGTTATA	-0.0188
ATAAAGTC	0.17
AGAAGGCT	-0.0632
GGGAGTGA	-0.0284
CTAACCAA	0.0907
TACGGTAA	0.228
